{
  "source": "PubChem BioAssay AID720708",
  "about": "(National Center for Advancing Translational Sciences (NCATS), 2013)",
  "note": "Out of some 360,000 compounds screened, about 660 (0.18%) were called active. The shares of active, inactive and inconclusive entries below differ from those in the screen. Calls come from the whole dose curve; as a rule, active = well fitted inhibition curve with a large enough effect; inconclusive = small, poorly fitted or top-dose-only effect; inactive = no such curve, though single readings can be large or run the other way. No potency is given beside an inconclusive call; the fits are too rough. % is set by controls: 0 for no effect and ±100 for the full control effect; potency is the fitted concentration of half-maximal effect; tags give direction and shape of the fitted curve.",
  "data": [
    {"molecular_target": "Rap guanine nucleotide exchange factor 4 (Homo sapiens) (UniProt Q8WZA2)", "sequence (Q8WZA2 whole entry, looked up)": "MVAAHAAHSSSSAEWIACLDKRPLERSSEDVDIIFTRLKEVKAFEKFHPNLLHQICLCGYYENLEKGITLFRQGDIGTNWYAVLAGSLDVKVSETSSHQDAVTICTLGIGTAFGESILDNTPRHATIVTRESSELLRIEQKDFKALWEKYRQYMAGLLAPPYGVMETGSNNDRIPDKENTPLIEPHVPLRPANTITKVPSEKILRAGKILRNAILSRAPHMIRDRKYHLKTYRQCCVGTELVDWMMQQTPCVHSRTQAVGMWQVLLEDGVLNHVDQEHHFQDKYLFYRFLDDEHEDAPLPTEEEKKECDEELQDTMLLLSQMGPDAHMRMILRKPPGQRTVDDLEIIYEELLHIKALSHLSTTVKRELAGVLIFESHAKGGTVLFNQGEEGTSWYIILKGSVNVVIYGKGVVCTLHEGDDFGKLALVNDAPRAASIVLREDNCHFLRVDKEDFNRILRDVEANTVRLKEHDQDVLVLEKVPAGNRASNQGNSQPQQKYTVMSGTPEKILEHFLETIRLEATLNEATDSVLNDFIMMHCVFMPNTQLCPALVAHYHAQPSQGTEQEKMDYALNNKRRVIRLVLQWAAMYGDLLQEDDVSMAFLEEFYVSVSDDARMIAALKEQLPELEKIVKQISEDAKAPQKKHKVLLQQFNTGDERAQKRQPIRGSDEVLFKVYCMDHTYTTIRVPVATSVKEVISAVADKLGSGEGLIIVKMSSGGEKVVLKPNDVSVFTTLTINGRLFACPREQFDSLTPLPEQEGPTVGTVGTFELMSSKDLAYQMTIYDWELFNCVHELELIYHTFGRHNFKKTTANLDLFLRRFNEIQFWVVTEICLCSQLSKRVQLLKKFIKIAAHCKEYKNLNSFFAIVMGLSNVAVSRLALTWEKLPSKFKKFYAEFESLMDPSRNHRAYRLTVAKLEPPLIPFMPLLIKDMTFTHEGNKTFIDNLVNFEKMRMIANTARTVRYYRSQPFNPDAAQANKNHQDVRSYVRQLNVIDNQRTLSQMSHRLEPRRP", "experiment": "qHTS for Antagonist of cAMP-regulated guanine nucleotide exchange factor 2 (EPAC2): primary screen; note: nearly all actives have a fitted effect of over 45% in size", "details": "EPAC2 GEF exchange of Rap1B-BODIPY-GDP, fluorescence; activity, negative = inhibition: at 114 µM (top of the series) unless noted", "values": [
      {"smiles": "CCOC1=C2[C@H](c3ccccc3)N(S(=O)(=O)c3ccc(C)cc3)[C@H](C(C)C)[C@H]2n2c(=O)n(-c3ccccc3)c(=O)n2C1", "Potency": "inconclusive [inhibitor, single point]"},
      {"smiles": "CCCCCCCCN1C(=O)[C@H](CC(=O)N2CCN(C(=O)C3CC3)CC2)C[C@@]2(C(=O)OC)CC(C)(C)CC=C12", "Potency": "inconclusive [inhibitor, partial curve]"},
      {"smiles": "CCN1C(=S)SC(=O)C1=C1C=C(C)N(Cc2ccco2)C(C)=C1", "Potency": "inactive"},
      {"smiles": "Cc1c(OC(C)C(=O)NC(Cc2c[nH]c3ccc(O)cc23)C(=O)O)ccc2c1oc(=O)c1ccccc12", "note": "(stereo not given)", "Potency": "inconclusive [inhibitor, partial curve]"},
      {"smiles": "CCOC(=O)CC(=O)CSc1nc(-c2cccnc2)cc(C)c1C#N", "Potency": "inactive"},
      {"smiles": "COc1ccc(C2CCc3cc4c(cc3C2=NO)OCO4)cc1OC", "note": "(stereo not given)", "Potency": "inconclusive [inhibitor, partial curve]"},
      {"smiles": "Cc1nc2c(nc1C)C(=O)c1ccccc1C2=O", "Potency": "inactive"},
      {"smiles": "Cc1ccc2nc(-c3ccc(NC(=O)c4ccco4)cc3)[nH]c2c1", "Potency": "inconclusive [inhibitor, partial curve]"},
      {"smiles": "CCOC(=O)N1CCN(S(=O)(=O)c2cc(-c3nn4c(C)nnc4c4ccccc34)ccc2C)CC1", "Potency": "inconclusive [inhibitor, partial curve]"},
      {"smiles": "C=CC[C@@H](CC(=O)OC(C)(C)C)C(=O)OC[C@@H]1CCCN1C(=O)[C@@H](CC=C)CC(=O)N(CCO)Cc1ccccc1", "Potency": "inconclusive [inhibitor, single point]"},
      {"smiles": "COc1ccc2c3n(nc2c1)CCN=C3c1cc(Cl)c(N)c(Cl)c1", "Potency": "inconclusive [inhibitor, partial curve]"},
      {"smiles": "Cc1ccc(NC(=O)CN2C(=O)S/C(=C\\c3cc(Cl)c(OCC(=O)O)c(Cl)c3)C2=O)cc1", "Potency": "inconclusive [inhibitor, full curve]"},
      {"smiles": "COc1cccc(C(=O)Nc2cc(C(=O)NCCc3ccccc3)ccc2Cl)c1", "Potency": "inactive"},
      {"smiles": "O=C(Nc1nnc(SCc2ccc(F)cc2)s1)c1ccccn1", "Potency": "inactive"},
      {"smiles": "Cc1cccc(C(=O)c2c(N)sc3c2CCCC3)c1", "Potency": "inconclusive [inhibitor, partial curve]"},
      {"smiles": "C#CCOCCOCCOCCNc1nc(N2CCN(C(=O)CCCCCCCCCCNC(=O)[C@H](CO)n3cc(CCCSC)nn3)CC2)nc(N2CCN(C(=O)CCCCCCCCCCNC(=O)[C@H](CCCCN)n3cc(CCO)nn3)CC2)n1", "Potency": "inconclusive [inhibitor, partial curve]"},
      {"smiles": "Fc1ccc(NC(=S)N2CCCN(c3ccc(C(F)(F)F)cn3)CC2)c(F)c1", "Potency": "inconclusive [inhibitor, partial curve]"},
      {"smiles": "OC(Cc1ccccc1Br)c1ncc(-c2cccc(C(F)(F)F)c2)[nH]1", "note": "(stereo not given)", "Potency": "inconclusive [inhibitor, full curve, poor fit]"},
      {"smiles": "Cc1ccc(NC(NC(=O)c2ccccc2[N+](=O)[O-])C(Cl)(Cl)Cl)cc1", "note": "(stereo not given)", "activity, negative = inhibition": "inconclusive: -20% [inhibitor]"},
      {"smiles": "CCC(=O)NC(c1ccc(OC)c(OC)c1)c1cc(Cl)c2cccnc2c1O", "note": "(stereo not given)", "Potency": "inconclusive [inhibitor, single point]"},
      {"smiles": "Cc1ccc(Sc2ccc(NC(=O)c3ccc(F)cc3)cc2C#N)cc1", "Potency": "inconclusive [inhibitor, single point]"},
      {"smiles": "CCC(CC)c1nnc(NC(=O)c2ccc(N3CCCCC3)c([N+](=O)[O-])c2)s1", "Potency": "inconclusive [inhibitor, full curve, poor fit]"},
      {"smiles": "CC1(C)OC(=O)C(=C2CCCN2)C(=O)O1", "Potency": "inconclusive [inhibitor, partial curve]"},
      {"smiles": "COc1ccc(NC(=S)Nc2ccc3nsnc3c2)cc1", "Potency": "inconclusive [inhibitor, single point]"},
      {"smiles": "CC(C)(C)C1COc2ccccc2N1C(=O)c1ccccc1Cl", "note": "(stereo not given)", "Potency": "inconclusive [inhibitor, partial curve]"},
      {"smiles": "S=C1NC[C@H](c2ccccc2)N1CC1CCCCC1", "Potency": "inconclusive [inhibitor, partial curve]"},
      {"smiles": "CC(C)CC1C(=O)N(Cc2cn(CCC3OCCCO3)nn2)CCS(=O)(=O)N1Cc1ccc(-c2ccc(Cl)cc2)cc1", "note": "(stereo not given)", "Potency": "inconclusive [inhibitor, partial curve]"},
      {"smiles": "CN1CCN(CCCN2c3ccccc3Sc3ccc(C(F)(F)F)cc32)CC1", "Potency": "inconclusive [inhibitor, partial curve]"},
      {"smiles": "NS(=O)(=O)c1ccc(CNc2ccc3ccccc3n2)cc1", "Potency": "inactive"},
      {"smiles": "CC/S(C)=N/S(=O)(=O)c1ccc(C)cc1", "note": "(stereo not given)", "Potency": "inactive"},
      {"smiles": "COC(=O)c1c(NC(=O)c2ccccc2C(=O)O)sc2c1CCCC2", "Potency": "inconclusive [inhibitor, full curve, poor fit]"},
      {"smiles": "CCC(CC)NC(=O)CC(c1ccccc1)c1ccccc1", "Potency": "inconclusive [inhibitor, full curve, poor fit]"},
      {"smiles": "O=C(c1ccc([N+](=O)[O-])cc1)N(Cc1ccc(Br)cc1)N1C(=O)CCCC1=O", "Potency": "inactive"},
      {"smiles": "COc1ccc(S(=O)(=O)NC(=O)C2(C)CCN2C(=O)COc2ccc(Cl)cc2)cc1OC", "note": "(stereo not given)", "Potency": "inconclusive [inhibitor, single point]"},
      {"smiles": "CC(C)(C)OC(=O)NCCCCCNC(=O)c1[nH]cnc1C(=O)Nc1cc(Br)ccc1F", "Potency": "inactive"},
      {"smiles": "CCc1ccc2c(c1)NC(=O)C2(C)Cc1ccccc1Cl", "note": "(stereo not given)", "Potency": "inconclusive [inhibitor, partial curve]"},
      {"smiles": "CC(=O)Oc1cc(O)c2c(=O)c(OC(C)=O)c(-c3ccc(OC(C)=O)c(OC(C)=O)c3)oc2c1", "Potency": "inconclusive [inhibitor, single point]"},
      {"smiles": "Cc1ccc(S(=O)(=O)/N=C/c2ccc(N(C)C)cc2)cc1", "Potency": "inconclusive [inhibitor, single point]"},
      {"smiles": "COc1ccc(C(=S)NC2CCCCC2)cc1", "Potency": "inactive"},
      {"smiles": "COC(=O)c1ccc2nc(-c3ccc(OC)c(OC)c3)c(Cc3ccccc3)n2c1", "Potency": "inconclusive [inhibitor, partial curve]"},
      {"smiles": "COc1cccc(NC(=O)CN(C)C(=O)c2ccc3c(c2)C(=O)N(CCC(C)C)C3=O)c1", "Potency": "inconclusive [inhibitor, partial curve]"},
      {"smiles": "Cc1ccc(C)c(S(=O)(=O)/N=C2\\C=C(NS(=O)(=O)c3ccccc3)C(=O)c3ccccc32)c1", "Potency": "inconclusive [inhibitor, partial curve]"},
      {"smiles": "Cc1ccc(SCCC(=O)OCC(=O)NCC2CCCCC2)cc1", "Potency": "inconclusive [inhibitor, partial curve]"},
      {"smiles": "O=C(Nc1cccc([N+](=O)[O-])c1)c1ccn[nH]1", "Potency": "inconclusive [inhibitor, single point]"},
      {"smiles": "CC1CN(S(=O)(=O)c2ccc(C(=O)Nc3ccccc3F)cc2)CC(C)O1", "note": "(stereo not given)", "Potency": "inactive"},
      {"smiles": "CCCc1nnc(NC(=O)CCC(=O)N2CCC(Cc3ccccc3)CC2)s1", "Potency": "inconclusive [inhibitor, partial curve]"},
      {"smiles": "CCc1nc2ccc(C(=O)N(C)Cc3ccccc3)cn2c1N(CC)Cc1cccc(Br)c1", "Potency": "inconclusive [inhibitor, partial curve]"},
      {"smiles": "O=C(Nc1cc(Cl)ccc1N1CCOCC1)c1ccc2c(c1)OCCO2", "Potency": "inconclusive [inhibitor, partial curve]"},
      {"smiles": "CCn1c(-c2cc(-c3ccc(C)cc3)nc3ccccc23)n[nH]c1=S", "Potency": "inactive"},
      {"smiles": "CC(=O)N/N=C/c1ccc(OCCOc2ccc(Br)cc2)cc1", "Potency": "inactive"},
      {"smiles": "O=[N+]([O-])c1nccn1CC(O)CO", "note": "(stereo not given)", "Potency": "inactive"},
      {"smiles": "O=c1c(Cl)c(O)c2cccc3c4ccccc4n1c23", "Potency": "inconclusive [inhibitor, single point]"},
      {"smiles": "C/C=C/c1cc(OC)c2c(c1)[C@H](C)[C@@H](c1ccc(O)c(OC)c1)O2", "Potency": "inconclusive [inhibitor, partial curve]"},
      {"smiles": "Cc1cc(C)c(S(=O)(=O)c2ccc(F)cc2)c(C)c1", "Potency": "inconclusive [inhibitor, full curve]"},
      {"smiles": "CCC1Nc2ncnc(N3CCCCC3)c2N(Cc2ccc(Br)cc2)C1=O", "note": "(stereo not given)", "Potency": "inconclusive [inhibitor, full curve]"},
      {"smiles": "CN1/C(=C/C(=S)NC(=O)C2CCC2)C(C)(C)c2ccccc21", "Potency": "inactive"},
      {"smiles": "O=C(NCCCN1CCN(CCCNC(=O)c2cccc(Cl)c2)CC1)c1cccc(Cl)c1", "Potency": "inactive"},
      {"smiles": "COc1ccc(Cl)cc1NC(=O)CNCc1cccs1", "Potency": "inconclusive [inhibitor, partial curve]"},
      {"smiles": "Cn1c(=O)[nH]c(=O)c2c1nc(SCCCO)n2CCCc1ccccc1", "Potency": "inconclusive [inhibitor, partial curve, poor fit]"},
      {"smiles": "CC(=O)Nc1nc(C)c(Oc2ccc(Cl)cc2Cl)c(=O)[nH]1", "Potency": "inconclusive [inhibitor, single point]"},
      {"smiles": "CC(=O)CCc1oc2c([N+](=O)[O-])cccc2c1-c1ccc(C)o1", "Potency": "inconclusive [inhibitor, full curve]"},
      {"smiles": "Cc1ccc(-c2cc(C(=O)O)c3cc(Br)ccc3n2)o1", "Potency": "inactive"},
      {"smiles": "Cc1cccc(CCNS(=O)(=O)c2ccc(S(=O)(=O)N3CCC(C)CC3)cc2)c1", "Potency": "inactive"},
      {"smiles": "CC1=CC2=C(C=O)C(=O)C(C)(O)C(O)C2=CO1", "note": "(stereo not given)", "Potency": "active: 50.1 µM"},
      {"smiles": "CCOC(=O)c1c(NC(=O)CSc2nnc(C)c(=O)[nH]2)sc(C)c1-c1ccc(C)cc1", "Potency": "inconclusive [inhibitor, partial curve]"}
    ]}
  ]
}
